Measured values: PubChem BioAssay (EPA / NIEHS)
For some of these results: The hits were mostly taken out for another list; the other results follow. Some structures have more than one record in an assay (separate samples or runs), and their calls can disagree. This is a selection; strong and weak results do not stand in their true shares. Records with an inconclusive call do not appear. Activity calls are given as the source filed them. Rule for the calls, unless noted: active = hit-call score of the fitted dose curve at least 0.9, where 1 is the maximum; inactive = score below 0.9.

Assays:
[1] = BSK_3C_Proliferation: Cell Proliferation Assessment in the BioMAP Diversity Plus: 3C Assay (AID 2283006); conditions: primary human endothelial cells (HUVEC);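 note: potency may reflect either rise or fall in cell number versus DMSO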
Summary of the method: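 Proliferation as total protein: sulforhodamine B (0.1%) stain of TCA-fixed subconfluent human umbilical vein endothelial cells, absorbance 560 nm, 48 h after dosing. Activity fitted in both directions against DMSO baseline.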

[2] = read-out: Monocyte Chemoattractant Protein-1 (MCP1), CCL2 (gene 6347); assay: BSK_3C_MCP1: BioMAP Diversity Plus: 3C Assay for Monocyte Chemoattractant Protein-1 (MCP1) Biomarker Activity (AID 2283017); conditions: actives raise or lower the signal; primary human endothelial cells (HUVEC)
Summary of the method: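 MCP-1 was measured by ELISA 24 h after dosing in primary HUVEC 3C cultures and fitted in both directions relative to DMSO; cytotoxicity was checked by SRB total-protein staining in parallel wells.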

[3] = BSK_LPS_SRB: Viability Assessment in the BioMAP Diversity Plus: LPS Assay (AID 2283079); conditions: primary human HUVEC with PBMC;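 note: total protein by sulforhodamine B absorbance as a cytotoxicity measure; measured one day after compound addition; fitted in both directions against DMSO so loss or gain of signal counts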
Summary of the method: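 SRB viability endpoint: cells fixed with 10% TCA, stained with 0.1% SRB, read at 560 nm, 24 h post-dose. HUVEC/PBMC co-culture; signal change in either direction scored relative to DMSO.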

[4] = read-out: Macrophage colony-stimulating factor (MCSF), CSF1 (gene 1435); assay: BSK_LPS_MCSF: BioMAP Diversity Plus: LPS Assay for Macrophage colony-stimulating factor (MCSF) Biomarker Activity (AID 2283083); conditions: actives raise or lower the signal; primary human HUVEC with PBMC
Summary of the method: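 Bidirectional fitting against DMSO was applied to M-CSF levels read by ELISA at 24 h post-dose. The system pairs human umbilical vein endothelium with peripheral blood mononuclear cells; parallel SRB staining tracked cytotoxicity.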

[5] = read-out: 3-Hydroxy-3-Methylglutaryl-CoA Synthase 2 (HMGCS2), HMGCS2 (gene 3158); assay: LTEA_HepaRG_HMGCS2: Life Technologies and Expression Analysis (LTEA) Assay for 3-Hydroxy-3-Methylglutaryl-CoA Synthase 2 (HMGCS2) using HepaRG (AID 2283504); conditions: actives raise or lower the signal; mRNA level, 48 h
Summary of the method: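 Readout is HMGCS2 transcript by qRT-PCR, housekeeping-normalised (ACTB/GAPDH/POLR2A) and fitted bidirectionally against 0.5% DMSO. Differentiated HepaRG cells received chemicals 48 h, duplicate wells, eight half-log concentrations topping at 100 uM.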

[6] = read-out: Pyruvate Dehydrogenase Kinase 4 (PDK4), PDK4 (gene 5166); assay: LTEA_HepaRG_PDK4: Life Technologies and Expression Analysis (LTEA) Assay for Pyruvate Dehydrogenase Kinase 4 (PDK4) using HepaRG (AID 2283525); conditions: actives raise or lower the signal; mRNA level, 48 h
Summary of the method: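 Readout is qRT-PCR of PDK4 transcript, normalized to three housekeeping genes, with bidirectional fitting against 0.5% DMSO vehicle. Differentiated HepaRG cells were treated 48 h in serum-free induction medium, duplicate wells, eight-point half-log series topping at 100 uM.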

[7] = ACEA_ER_AUC_viability: ACEA Biosciences xCELLigence Real-Time Cell Analysis on Estrogen Receptor Agonism for Viability (AID 2283782; active = hit-call score of the fitted dose curve at least 0.9, where 1 is the maximum;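 note: hit means loss of impedance signal meaning reduced cell growth or viability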)
Summary of the method: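 Viability endpoint: reduced impedance area under the curve relative to DMSO, recorded by real-time electrode sensing over ~80 h of continuous exposure. Duplicate plates of T47D in hormone-depleted medium; eight concentrations, 1:4 dilutions, 100 uM maximum.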

[8] = CCTE_Shafer_MEA_dev_network_spike_duration_std: CCTE's Neural Network Formation Assay for Standard Deviation of Network Spike Duration, Shafer Lab (AID 2284052);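 note: hits are decreases in network spike duration SD versus DMSO vehicle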
Summary of the method: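 Network spike duration variability was collapsed across recordings on days 5, 7, 9 and 12 by trapezoidal area-under-curve and fitted downward against DMSO. Cultures were rat cortical neurons on PEI-coated MEA plates, dosed continuously from plating, refed with compound DIV 5/9.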

[9] = target: human Peroxisome Proliferator-activated Receptor delta (PPARd), PPARD (gene 5467) (UniProt Q03181); assay: ATG_PPARd_TRANS: Attagene TRANS-FACTORIAL HepG2 Assay for human Peroxisome Proliferator-activated Receptor delta (PPARd) (AID 2283002; active = hit-call score of the fitted dose curve at least 0.9, where 1 is the maximum)
Chain of UniProt Q03181 (Q03181 whole entry, looked up, the tested form may be a part): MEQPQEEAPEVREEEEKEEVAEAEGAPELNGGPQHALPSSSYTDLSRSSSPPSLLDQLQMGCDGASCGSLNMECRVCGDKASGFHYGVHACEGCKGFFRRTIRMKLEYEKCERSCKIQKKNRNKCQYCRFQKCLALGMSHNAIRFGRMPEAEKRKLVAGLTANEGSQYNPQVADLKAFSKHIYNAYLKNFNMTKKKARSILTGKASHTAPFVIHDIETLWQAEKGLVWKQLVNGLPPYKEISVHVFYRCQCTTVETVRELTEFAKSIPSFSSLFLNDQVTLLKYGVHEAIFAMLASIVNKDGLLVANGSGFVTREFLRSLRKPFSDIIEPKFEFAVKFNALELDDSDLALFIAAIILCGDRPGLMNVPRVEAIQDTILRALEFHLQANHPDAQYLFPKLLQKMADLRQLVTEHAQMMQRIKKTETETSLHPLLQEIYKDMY
Summary of the method: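 Read-out is induced reporter mRNA, quantified by RT-PCR with fluorescent labelling and capillary electrophoresis after 24 h dosing. Cells are HepG2 transiently carrying multiple GAL4-UAS reporter units driven by exogenous NR-GAL4 chimeras; DMSO serves as baseline.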

[10] = target: Retinoic acid receptor RXR-alpha (Homo sapiens) (UniProt P19793); assay: ATG_RXRa_TRANS: Attagene TRANS-FACTORIAL HepG2 Assay for human Retinoid X Receptor alpha (RXRa) (AID 2283012; active = hit-call score of the fitted dose curve at least 0.9, where 1 is the maximum)
Chain of UniProt P19793 (P19793 whole entry, looked up, the tested form may be a part): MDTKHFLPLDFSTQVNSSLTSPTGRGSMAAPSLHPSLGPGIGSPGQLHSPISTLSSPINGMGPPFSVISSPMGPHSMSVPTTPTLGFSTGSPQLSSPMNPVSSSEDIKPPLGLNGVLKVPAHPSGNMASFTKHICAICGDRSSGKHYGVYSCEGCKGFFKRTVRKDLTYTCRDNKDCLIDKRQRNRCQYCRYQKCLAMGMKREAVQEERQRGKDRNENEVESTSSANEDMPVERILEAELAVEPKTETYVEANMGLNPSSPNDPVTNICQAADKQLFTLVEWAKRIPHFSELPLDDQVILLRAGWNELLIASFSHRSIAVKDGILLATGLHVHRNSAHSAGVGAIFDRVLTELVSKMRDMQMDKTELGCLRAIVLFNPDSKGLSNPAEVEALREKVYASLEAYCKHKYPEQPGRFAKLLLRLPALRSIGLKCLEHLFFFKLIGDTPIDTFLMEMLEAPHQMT
Summary of the method: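 TRANS format reporting activity of exogenous RXRa-Gal4 chimera in transiently transfected HepG2, 24 h exposure. Reporter transcripts quantified by RT-PCR with capillary electrophoresis, with gain of signal scored relative to DMSO.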

[11] = target: human RAR-related Orphan Receptor beta (RORb), RORB (gene 6096) (UniProt Q92753); assay: ATG_RORb_TRANS: Attagene TRANS-FACTORIAL HepG2 Assay for human RAR-related Orphan Receptor beta (RORb) (AID 2283010; active = hit-call score of the fitted dose curve at least 0.9, where 1 is the maximum)
Chain of UniProt Q92753 (Q92753 whole entry, looked up, the tested form may be a part): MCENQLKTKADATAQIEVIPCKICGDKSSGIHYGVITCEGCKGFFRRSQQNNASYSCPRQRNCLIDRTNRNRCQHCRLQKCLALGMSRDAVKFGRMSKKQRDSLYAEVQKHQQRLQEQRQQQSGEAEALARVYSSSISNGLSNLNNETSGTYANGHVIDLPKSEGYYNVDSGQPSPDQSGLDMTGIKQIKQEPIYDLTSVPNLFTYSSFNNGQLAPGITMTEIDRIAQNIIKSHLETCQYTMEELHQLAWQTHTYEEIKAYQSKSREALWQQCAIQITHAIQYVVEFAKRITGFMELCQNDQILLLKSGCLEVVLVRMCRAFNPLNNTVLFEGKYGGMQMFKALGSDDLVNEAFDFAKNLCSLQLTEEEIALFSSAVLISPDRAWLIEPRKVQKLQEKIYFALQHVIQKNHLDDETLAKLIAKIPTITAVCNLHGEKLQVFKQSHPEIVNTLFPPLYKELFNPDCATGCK
Summary of the method: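 Read-out is reporter mRNA induction, quantified by RT-PCR with fluorescent capillary electrophoresis, 24 h post-dose in transiently transfected HepG2 expressing exogenous NR-Gal4 chimera. Activity fitted upward versus DMSO.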

[12] = read-out: E-selectin (Homo sapiens) (UniProt P16581); assay: BSK_3C_Eselectin: BioMAP Diversity Plus: 3C Assay for Eselectin Biomarker Activity (AID 2283015); conditions: actives raise or lower the signal; primary human endothelial cells (HUVEC)
Chain of UniProt P16581 (P16581 whole entry, looked up): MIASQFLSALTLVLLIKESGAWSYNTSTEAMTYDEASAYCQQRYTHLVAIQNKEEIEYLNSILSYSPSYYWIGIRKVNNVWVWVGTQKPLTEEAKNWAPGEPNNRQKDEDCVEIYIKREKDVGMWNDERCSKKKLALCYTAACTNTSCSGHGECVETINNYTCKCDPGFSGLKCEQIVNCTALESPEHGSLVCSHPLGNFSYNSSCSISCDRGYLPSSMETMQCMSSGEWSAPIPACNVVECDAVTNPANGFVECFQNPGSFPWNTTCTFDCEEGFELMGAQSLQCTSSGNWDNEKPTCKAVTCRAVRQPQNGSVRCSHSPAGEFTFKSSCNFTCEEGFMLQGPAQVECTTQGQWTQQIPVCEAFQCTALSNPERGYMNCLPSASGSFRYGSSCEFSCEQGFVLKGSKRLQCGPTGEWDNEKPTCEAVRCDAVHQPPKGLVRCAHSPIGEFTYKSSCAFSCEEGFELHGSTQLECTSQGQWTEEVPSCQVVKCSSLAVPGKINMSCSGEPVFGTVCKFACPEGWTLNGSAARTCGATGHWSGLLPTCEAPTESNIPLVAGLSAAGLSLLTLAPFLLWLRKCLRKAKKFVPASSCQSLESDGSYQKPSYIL
Summary of the method: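 E-selectin ELISA readout, fitted bidirectionally relative to DMSO, taken 24 h post-dosing in HUVEC cultures of the 3C system. Overt cytotoxicity tracked with sulforhodamine B staining of parallel wells.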

[13] = read-out: Interleukin-8 (IL8), CXCL8 (gene 3576); assay: BSK_hDFCGF_IL8: BioMAP Diversity Plus: hDFCGF Assay for Interleukin-8 (IL8) Biomarker Activity (AID 2283058); conditions: actives raise or lower the signal; primary human foreskin fibroblasts
Summary of the method: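 IL-8 levels read by ELISA at 24 hours after dosing human skin fibroblast cultures. Parallel SRB staining assessed overt cytotoxicity, and gain or loss of signal was fitted against DMSO control.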

[14] = read-out: Fatty Acid-Binding Protein 1 (FABP1), FABP1 (gene 2168); assay: LTEA_HepaRG_FABP1: Life Technologies and Expression Analysis (LTEA) Assay for Fatty Acid-Binding Protein 1 (FABP1) using HepaRG (AID 2283494); conditions: actives raise or lower the signal; mRNA level, 48 h
Summary of the method: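 FABP1 expression by TaqMan qRT-PCR, normalised to three housekeeping genes, in HepaRG cells after 48 h chemical treatment. Eight-point half-log series topping at 100 uM in 0.5% DMSO, duplicates; gain or loss fitted relative to vehicle.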

[15] = CCTE_Shafer_MEA_dev_per_network_spike_spike_percent: CCTE's Neural Network Formation Assay for Percent of Spikes in a Network Spike, Shafer Lab (AID 2284054)
Summary of the method: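 Metric: fraction of spikes falling in a 0.05 s window at network-spike peaks. Recordings were made on days 5, 7, 9 and 12 and collapsed by trapezoidal AUC. Cultures were rat cortical neurons on MEA plates, dosed continuously from plating, re-dosed at media changes.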

[16] = IUF_NPC3_neuronal_differentiation_120hr: Leibniz Research Institute for Environmental Medicine (IUF) 120-hour Neuronal Differentiation Assay (NPC3) (AID 2284301)
Summary of the method: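 Value is percent TUBB3-positive neurons among Hoechst-stained nuclei in the migration area, scored by trained CNN after 120 h differentiation. Primary hNPC spheres on poly-D-lysine/laminin, N2 medium, continuous dosing from day 0, half-refeed day 3; DMSO reference.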

With `ClC(Cl)=C(c1ccc(Cl)cc1)c1ccc(Cl)cc1` the AC50 [1] was active: 27.6 µM, the AC50 [2] was active: 34.9 µM and the AC50 [3] was active: 35.2 µM. For the same compound, the AC50 [4] was active: 30.7 µM, the outcome [5] was “inactive” and the outcome [6] was “inactive”. The AC50 [7] was active: 28.4 µM and the AC50 [8] was active: 3.82 µM.

With `CCCCCCCCCCCCBr` the outcome [9] was “inactive” and the outcome [10] was “inactive”.

For `CCOCN(C(=O)CCl)c1c(C)cccc1CC`, the outcome [11] was “inactive”.

For `COP(=O)(OC)OC=C(Cl)Cl`, the AC50 [12] was active: 37 µM, the outcome [13] was “inactive” and the outcome [14] was “inactive”. The outcome [15] was “inactive” and the AC50 [16] was active: 9.72 µM.
